The list shows a part of the results.
Tests used:
HSkMC = human skeletal muscle cells; assay: cytotoxicity call (relative viability < 0.9); conditions: 10 µM
HepG2 = assay: cytotoxicity call (relative viability < 0.9); conditions: 10 µM
S. aureus RN4220 = assay: growth inhibition call (relative growth <= 0.2); conditions: 50 µM

| Structure (SMILES) | cytotoxicity call (HSkMC) | cytotoxicity call (HepG2) | growth inhibition call (S. aureus RN4220) |
| --- | --- | --- | --- |
| C[C@@H]1CN([C@@H](C)CO)C(=O)c2cc(/C=C/c3ccccc3)cnc2O[C@@H]1CN(C)C(=O)c1cnccn1 | inactive | inactive | inactive |
| C[C@@H]1CCCCO[C@@H](CN(C)C(=O)Nc2ccc3c(c2)OCO3)[C@H](C)CN([C@@H](C)CO)C(=O)c2cc(NC(=O)Nc3ccc(F)cc3)ccc2O1 | inactive | inactive | inactive |
| O=C(NO)c1cccc(C(=O)N/N=C/[C@@H](O)[C@@H](O)[C@H](O)[C@H](O)CO)c1 | inactive | inactive | inactive |
| COc1ccc(NC(=O)Nc2ccc3c(c2)C(=O)N([C@H](C)CO)C[C@H](C)[C@H](CN(C)C(=O)CCC(F)(F)F)OCCCC[C@@H](C)O3)cc1 | inactive | inactive | inactive |
| CCCN(C)C[C@@H]1OCCCC[C@H](C)Oc2ccc(NC(=O)C3CCCCC3)cc2C(=O)N([C@@H](C)CO)C[C@@H]1C | inactive | inactive | inactive |
| Cc1noc(C)c1S(=O)(=O)N(C)C[C@H]1Oc2ccc(NC(=O)Nc3ccc4c(c3)OCO4)cc2CC(=O)N([C@H](C)CO)C[C@@H]1C | inactive | inactive | inactive |
| C[C@H]1CN([C@@H](C)CO)C(=O)c2cccc(NC(=O)Nc3cccc4ccccc34)c2O[C@H]1CN(C)S(=O)(=O)c1cccs1 | inactive | inactive | inactive |
| Cc1noc(C)c1NC(=O)Nc1ccc2c(c1)C(=O)N([C@@H](C)CO)C[C@H](C)[C@H](CN(C)Cc1ccc(Cl)c(Cl)c1)O2 | inactive | inactive | inactive |
| COc1ccc(S(=O)(=O)Nc2cccc3c2O[C@@H](CN(C)S(=O)(=O)c2cccs2)[C@H](C)CN([C@H](C)CO)C3=O)cc1 | inactive | inactive | inactive |
| CO[C@@H]1CN(C)C(=O)c2ccc(NS(C)(=O)=O)cc2OC[C@H](C)N(S(C)(=O)=O)C[C@H]1C | inactive | inactive | inactive |
| Cc1cccc(S(=O)(=O)N2C[C@@H](O)COC[C@H]3O[C@H](CC(=O)N4CCN(C)CC4)CC[C@@H]32)c1 | inactive | inactive | inactive |
| CC(C)NC(=O)N(C)C[C@H]1Oc2ccc(NC(=O)Nc3ccc4c(c3)OCO4)cc2CC(=O)N([C@@H](C)CO)C[C@H]1C | inactive | inactive | inactive |
| Cc1noc(C)c1NC(=O)Nc1cccc2c1O[C@@H](CN(C)S(=O)(=O)c1ccccc1)[C@H](C)CN([C@@H](C)CO)C2=O | inactive | inactive | inactive |
| C[C@H](CO)N1C[C@H](C)[C@@H](CN(C)Cc2ccc(C(=O)Nc3ccccc3N)cc2)OCCCC[C@H](C)Oc2ccc(N(C)C)cc2C1=O | inactive | inactive | inactive |
| C[C@@H]1CCCCO[C@H](CN(C)C(=O)CCCN(C)C)[C@@H](C)CN([C@@H](C)CO)C(=O)c2cc(NC(=O)Nc3cccc4ccccc34)ccc2O1 | inactive | inactive | inactive |
| Cc1ccc(S(=O)(=O)Nc2ccc3c(c2)CC(=O)N([C@@H](C)CO)C[C@@H](C)[C@@H](CN(C)S(=O)(=O)c2ccc(F)cc2)O3)cc1 | inactive | inactive | inactive |
| C[C@@H]1CN([C@@H](C)CO)C(=O)c2cc(NC(=O)NC3CCCCC3)ccc2O[C@@H](C)CCCCO[C@H]1CN(C)CC1CC1 | inactive | inactive | inactive |
| C[C@@H]1CN([C@@H](C)CO)C(=O)c2cc(C#CCN(C)C)cnc2O[C@@H]1CN(C)Cc1ccc2c(c1)OCO2 | inactive | inactive | inactive |
| O=C(C[C@H]1C[C@@H]2c3cc(NC(=O)c4ccc5c(c4)OCO5)ccc3O[C@@H]2[C@@H](CO)O1)NCc1ccc(Oc2ccccc2)cc1 | inactive | active | inactive |
| COc1cccc(S(=O)(=O)N(C)C[C@H]2Oc3cc(C#CCN(C)C)ccc3S(=O)(=O)N([C@H](C)CO)C[C@H]2C)c1 | inactive | inactive | inactive |
| C[C@@H]1CN([C@H](C)CO)C(=O)c2cc(NC(=O)Nc3ccccc3)ccc2O[C@H]1CN(C)CC1CCCCC1 | inactive | inactive | inactive |
| C[C@@H]1CN([C@@H](C)CO)C(=O)c2cccc(NC(=O)Nc3ccc(C(F)(F)F)cc3)c2O[C@H]1CN(C)Cc1ccc(Cl)c(Cl)c1 | active | active | inactive |
| C[C@H]1CN([C@@H](C)CO)C(=O)Cc2cc(NS(=O)(=O)c3cn(C)cn3)ccc2O[C@H]1CN(C)S(=O)(=O)c1ccc(Cl)cc1 | inactive | inactive | inactive |
| C[C@@H]1CN([C@@H](C)CO)S(=O)(=O)c2ccc(C#C[C@@H](C)O)cc2O[C@H]1CN(C)C(=O)c1ccccc1 | inactive | inactive | inactive |
| COc1ccc(NC(=O)Nc2ccc3c(c2)CC(=O)N([C@@H](C)CO)C[C@H](C)[C@H](CN(C)Cc2ccc(C(=O)Nc4ccccc4N)cc2)O3)cc1 | inactive | inactive | inactive |
| CC(CO)(CO)NC(=O)NC1CCCCC1 | inactive | inactive | inactive |
| Cc1noc(C)c1NC(=O)Nc1ccc2c(c1)CC(=O)N([C@@H](C)CO)C[C@H](C)[C@H](CN(C)C(=O)NC(C)C)O2 | inactive | inactive | inactive |

| Structure (SMILES) | cytotoxicity call (HSkMC) | cytotoxicity call (HepG2) | growth inhibition call (S. aureus RN4220) |
| --- | --- | --- | --- |
| O=C(O)[C@@H]1C(=CCO)O[C@H]2CC(=O)N12 | inactive | inactive | inactive |
| CO[C@@H]1CN(C)C(=O)c2ccc(NC(=O)C3CC3)cc2OC[C@@H](C)N(C(=O)C2CCOCC2)C[C@@H]1C | inactive | inactive | inactive |
| COc1ccc2c3c([nH]c2c1)[C@H](CO)N(Cc1nccs1)C[C@]13CCN(CC1)C(=O)C1CCOCC1 | inactive | inactive | inactive |
| Cc1ccc(S(=O)(=O)Nc2cccc3c2O[C@@H](CN(C)Cc2ccc(Oc4ccccc4)cc2)[C@@H](C)CN([C@@H](C)CO)C3=O)cc1 | inactive | inactive | inactive |
| C[C@H](CO)N1C[C@H](C)[C@@H](CN(C)Cc2ccc(C(=O)Nc3ccccc3N)cc2)Oc2ccc(NS(=O)(=O)c3ccc(Cl)cc3)cc2C1=O | inactive | inactive | inactive |
| C[C@H](CO)N1C[C@H](C)[C@H](CN(C)S(=O)(=O)c2ccc(F)cc2)Oc2c(NC(=O)Nc3cccc4ccccc34)cccc2C1=O | active | inactive | inactive |
| O=C(C[C@@H]1CC[C@H](NS(=O)(=O)c2ccc(F)cc2)[C@@H](CO)O1)NCc1ccc(Cl)c(Cl)c1 | inactive | inactive | inactive |
| Cc1ccc(S(=O)(=O)N(C)C[C@@H]2Oc3c(NS(=O)(=O)c4c(C)noc4C)cccc3C(=O)N([C@H](C)CO)C[C@@H]2C)cc1 | inactive | inactive | inactive |
| O=C(CCCCCNC(=O)OCc1ccc(CO[C@H]2C[C@@H](c3ccc(Br)cc3)C=C(C(=O)N3CCN(Cc4ccc5c(c4)OCO5)CC3)O2)cc1)NO | inactive | inactive | inactive |
| C[C@H]1CN([C@@H](C)CO)C(=O)c2cc(NC(=O)Cn3cnnn3)ccc2O[C@H]1CN(C)Cc1ccc(C(=O)O)cc1 | inactive | inactive | inactive |
| Cc1ccc(S(=O)(=O)N(C)C[C@@H]2OCCCC[C@H](C)Oc3ccc(NC(=O)Nc4ccccc4)cc3C(=O)N([C@H](C)CO)C[C@H]2C)cc1 | inactive | inactive | inactive |
| C[C@H](CO)N1C[C@H](C)[C@H](CN(C)C(=O)Nc2cccc(C(F)(F)F)c2)OCc2cn(nn2)CCCC1=O | inactive | inactive | inactive |
| CC(C)NC(=O)Nc1ccc2c(c1)C(=O)N(C)[C@H]1CC[C@@H](CC(=O)NCc3ccc(F)cc3)O[C@H]1CO2 | inactive | inactive | inactive |
| C[C@H](CO)N1C[C@H](C)[C@H](CN(C)S(=O)(=O)c2ccc(F)cc2)Oc2c(NC(=O)C3CCOCC3)cccc2C1=O | inactive | inactive | inactive |
| CC(C)NC(=O)Nc1ccc2c(c1)C(=O)N([C@H](C)CO)C[C@@H](C)[C@H](CN(C)S(=O)(=O)c1ccc(F)cc1)O2 | inactive | inactive | inactive |
| C[C@@H]1CN([C@@H](C)CO)C(=O)c2ccccc2-c2ccccc2CO[C@H]1CN(C)S(=O)(=O)c1cn(C)cn1 | inactive | inactive | inactive |
| COc1ccc(NC(=O)Nc2ccc3c(c2)C(=O)N([C@H](C)CO)C[C@H](C)[C@H](CN(C)C(=O)Nc2ccc(C(F)(F)F)cc2)OCCCC[C@H](C)O3)cc1 | inactive | inactive | inactive |
| COCC(=O)Nc1ccc2c(c1)[C@H]1C[C@H](CC(=O)N3CCOCC3)O[C@@H](CO)[C@H]1O2 | inactive | inactive | inactive |
| CC(=O)OCC(=O)C12OC3(CCCC3)OC1CC1C3CCC4=CC(=O)C=CC4(C)C3(F)C(O)CC12C (centres undefined) | inactive | inactive | inactive |
| C[C@@H]1CCCCO[C@@H](CN(C)CC2CC2)[C@@H](C)CN([C@H](C)CO)C(=O)c2cc(NC(=O)Nc3ccc(C(F)(F)F)cc3)ccc2O1 | inactive | active | inactive |
| CO[C@@H]1CN(C)C(=O)c2cc(NC(=O)c3cnccn3)ccc2OC[C@@H](C)N(C(=O)c2cnccn2)C[C@H]1C | inactive | inactive | inactive |
| COc1ccccc1S(=O)(=O)N[C@@H]1C=C[C@@H](CC(=O)N2CCOCC2)O[C@H]1CO | inactive | inactive | inactive |
| CC(C)NC(=O)Nc1ccc2c(c1)C(=O)N([C@@H](C)CO)C[C@H](C)[C@H](CN(C)C(=O)Nc1ccc3c(c1)OCO3)O2 | inactive | inactive | inactive |
| O=C(O)C[C@H]1NC(=O)c2ccccc21 | inactive | inactive | inactive |
| COc1ccc(CN(C)C[C@@H]2Oc3ccc(NC(=O)CCCCCC(=O)Nc4ccccc4N)cc3CC(=O)N([C@@H](C)CO)C[C@@H]2C)cc1 | inactive | inactive | inactive |
| C[C@H]1CCCCO[C@@H](CN(C)Cc2ccc(C(=O)O)cc2)[C@@H](C)CN([C@@H](C)CO)C(=O)c2cc(NC(=O)Nc3ccc(C(F)(F)F)cc3)ccc2O1 | inactive | inactive | inactive |
